These are yes or no findings as the source states them, for the method shown. In cells and extracts the contact can be indirect. Some binding calls cover weakened binding; strength is not graded here. For part of these data: Sequences can lack the tags named with a protein.
T1: V5-ASC (mouse) (UniProt Q9EPB4)
T1 sequence: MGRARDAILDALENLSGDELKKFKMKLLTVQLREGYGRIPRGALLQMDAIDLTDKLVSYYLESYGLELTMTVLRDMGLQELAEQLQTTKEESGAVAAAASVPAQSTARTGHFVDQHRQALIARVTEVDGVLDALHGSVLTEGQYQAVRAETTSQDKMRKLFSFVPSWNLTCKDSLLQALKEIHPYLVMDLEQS

Sequences of proteins named here, by UniProt entry; tags and fusion partners are left off.
UniProt O70145: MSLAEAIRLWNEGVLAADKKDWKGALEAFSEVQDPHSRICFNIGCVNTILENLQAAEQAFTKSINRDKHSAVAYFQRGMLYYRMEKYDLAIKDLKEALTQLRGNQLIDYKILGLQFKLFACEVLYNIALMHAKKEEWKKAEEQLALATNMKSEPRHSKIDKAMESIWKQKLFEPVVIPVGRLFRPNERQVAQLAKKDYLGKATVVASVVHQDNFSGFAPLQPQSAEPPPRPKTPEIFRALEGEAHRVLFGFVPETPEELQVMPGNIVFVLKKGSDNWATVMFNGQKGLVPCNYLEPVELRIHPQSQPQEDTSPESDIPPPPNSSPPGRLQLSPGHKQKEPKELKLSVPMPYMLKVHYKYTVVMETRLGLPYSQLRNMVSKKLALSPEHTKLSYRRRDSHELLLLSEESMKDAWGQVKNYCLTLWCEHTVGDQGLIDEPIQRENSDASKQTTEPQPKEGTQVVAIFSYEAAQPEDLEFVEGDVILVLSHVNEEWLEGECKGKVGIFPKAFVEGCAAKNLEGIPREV

T2: V5-ASC-CARD (mouse) (UniProt Q9EPB4)
T2 sequence: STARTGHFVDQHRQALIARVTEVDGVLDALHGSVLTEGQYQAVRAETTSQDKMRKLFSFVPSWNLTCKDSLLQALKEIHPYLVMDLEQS

T3: NCF1 (p47^phox), endogenous in mouse BMDMs (mouse (endogenous in BMDMs)) (UniProt Q09014)
T3 sequence: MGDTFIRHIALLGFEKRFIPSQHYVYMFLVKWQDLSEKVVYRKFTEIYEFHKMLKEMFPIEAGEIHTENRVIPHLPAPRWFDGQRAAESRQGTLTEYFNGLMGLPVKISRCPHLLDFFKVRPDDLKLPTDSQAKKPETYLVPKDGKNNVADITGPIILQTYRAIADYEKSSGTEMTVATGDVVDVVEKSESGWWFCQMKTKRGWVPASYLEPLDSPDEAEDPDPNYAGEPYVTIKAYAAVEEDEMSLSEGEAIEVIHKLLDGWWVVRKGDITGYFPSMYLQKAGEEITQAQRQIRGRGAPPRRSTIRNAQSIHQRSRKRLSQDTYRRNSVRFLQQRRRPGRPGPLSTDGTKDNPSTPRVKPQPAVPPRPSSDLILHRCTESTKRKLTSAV

T4: apoptosis-associated speck-like protein containing a CARD (ASC), endogenous in mouse BMDMs (mouse (endogenous in BMDMs)) (UniProt Q9EPB4)
T4 sequence: T1 sequence

T5: NCF4 (p40^phox), endogenous in mouse BMDMs (mouse (endogenous in BMDMs)) (UniProt P97369)
T5 sequence: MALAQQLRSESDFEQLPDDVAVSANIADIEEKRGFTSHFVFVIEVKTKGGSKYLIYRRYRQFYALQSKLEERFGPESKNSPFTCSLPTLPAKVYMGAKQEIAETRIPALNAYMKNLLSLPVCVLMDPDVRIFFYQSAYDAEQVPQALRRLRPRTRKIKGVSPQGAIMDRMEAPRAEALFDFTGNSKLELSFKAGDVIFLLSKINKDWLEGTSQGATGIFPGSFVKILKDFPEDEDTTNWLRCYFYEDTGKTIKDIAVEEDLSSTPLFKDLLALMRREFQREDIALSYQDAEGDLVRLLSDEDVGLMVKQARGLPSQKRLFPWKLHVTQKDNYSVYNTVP

T6: WT NCF4, transduced into Ncf4^–/– BMDMs (mouse) (UniProt P97369)
T6 sequence: T5 sequence

B1: NCF1, transfected in HEK293T cells (protein, UniProt Q09014 1-390)
chain: T3 sequence
B2: NCF1 (p47^phox), endogenous in mouse BMDMs (protein, UniProt Q09014 1-390)
chain: T3 sequence
B3: NCF4 (p40^phox), endogenous in mouse BMDMs (protein, UniProt P97369 1-339)
chain: T5 sequence
B4: NOX2 (gp91^phox), endogenous in mouse BMDMs (protein, UniProt Q61093 1-570)
chain: MGNWAVNEGLSIFVILVWLGLNVFLFINYYKVYDDGPKYNYTRKLLGSALALARAPAACLNFNCMLILLPVCRNLLSFLRGSSACCSTRIRRQLDRNLTFHKMVAWMIALHTAIHTIAHLFNVEWCVNARVGISDRYSIALSDIGDNENEEYLNFAREKIKNPEGGLYVAVTRLAGITGIVITLCLILIITSSTKTIRRSYFEVFWYTHHLFVIFFIGLAIHGAERIVRGQTAESLEEHNLDICADKIEEWGKIKECPVPKFAGNPPMTWKWIVGPMFLYLCERLVRFWRSQQKVVITKVVTHPFKTIELQMKKKGFKMEVGQYIFVKCPKVSKLEWHPFTLTSAPEEDFFSIHIRIVGDWTEGLFNACGCDKQEFQDAWKLPKIAVDGPFGTASEDVFSYEVVMLVGAGIGVTPFASILKSVWYKYCDNATSLKLKKIYFYWLCRDTHAFEWFADLLQLLETQMQERNNANFLSYNIYLTGWDESQANHFAVHHDEEKDVITGLKQKTLYGRPNWDNEFKTIASEHPNTTIGVFLCGPEALAETLSKQSISNSESGPRGVHFIFNKENF
B5: FLAG-NCF4 (full length) (protein, UniProt P97369 1-339)
chain: T5 sequence

Key:
[1] = target: T1, V5-ASC (mouse); experiment: co-IP; HEK293T cells transfected with tagged plasmids, collected 36 h after transfection; IP buffer 50 mM Tris-HCl pH 7.4, 2 mM EDTA, 150 mM NaCl, 1% NP-40, 10% glycerol, 1 mM DTT; protein A/G agarose, 12 h at 4 °C; immunoblot
[2] = target: T2, V5-ASC-CARD (mouse); experiment: as above
[3] = target: T3, NCF1 (p47^phox), endogenous in mouse BMDMs (mouse (endogenous in BMDMs)); experiment: co-IP; endogenous proteins in WT and Asc^–/– BMDMs, untreated, LPS (500 ng/mL) or LPS plus ATP (5 mM, 15 min); IP with anti-ASC, anti-NCF4 or anti-NCF1; IP buffer 50 mM Tris-HCl pH 7.4, 150 mM NaCl, 1% NP-40; immunoblot
[4] = target: T4, apoptosis-associated speck-like protein containing a CARD (ASC), endogenous in mouse BMDMs (mouse (endogenous in BMDMs)); experiment: as above
[5] = target: T5, NCF4 (p40^phox), endogenous in mouse BMDMs (mouse (endogenous in BMDMs)); experiment: as above
[6] = target: T6, WT NCF4, transduced into Ncf4^–/– BMDMs (mouse); experiment: co-IP; Ncf4^–/– BMDMs transduced with control plasmid (PCDH), WT NCF4 or NCF4^MT; untreated, LPS (500 ng/mL, 4.5 h) or LPS plus ATP (5 mM, 15 min); co-IP of transduced NCF4, immunoblot for ASC and NOX2

Molecule | binding [1] | binding [2] | binding [3] | binding [4] | binding [5] | binding [6]
NCF2, transfected in HEK293T cells (from UniProt O70145 1-525) | binds | binds | – | – | – | –
NCF2 (p67^phox), endogenous in mouse BMDMs (from UniProt O70145 1-525) | – | – | binds | binds | binds | –
B1 | binds | – | – | – | – | –
B2 | – | – | – | binds | binds | –
B3 | – | – | binds | binds | – | –
B4 | – | – | binds | – | binds | binds
B5 | binds | no binding | – | – | – | –
